Here are results for 85 compounds from article PMC4336329 (PLoS ONE, 2015).

Each structure is given as a SMILES string. In all, about 310,000 compounds went through this assay and about 14,000 (4.5%) showed an effect of 50% or more. Effects have a minus sign here. The list shows a part of the results.
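Also: peak tail current of the secondary pulse compared with the same well before compound.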

The target of this assay is human ether-à-go-go-related gene (hERG) potassium channel (human, UniProt Q12809). The experiment in a line: primary screen, population patch clamp on CHO cells stably expressing hERG.
Sequence of human ether-à-go-go-related gene (hERG) potassium channel (Q12809 whole entry, looked up): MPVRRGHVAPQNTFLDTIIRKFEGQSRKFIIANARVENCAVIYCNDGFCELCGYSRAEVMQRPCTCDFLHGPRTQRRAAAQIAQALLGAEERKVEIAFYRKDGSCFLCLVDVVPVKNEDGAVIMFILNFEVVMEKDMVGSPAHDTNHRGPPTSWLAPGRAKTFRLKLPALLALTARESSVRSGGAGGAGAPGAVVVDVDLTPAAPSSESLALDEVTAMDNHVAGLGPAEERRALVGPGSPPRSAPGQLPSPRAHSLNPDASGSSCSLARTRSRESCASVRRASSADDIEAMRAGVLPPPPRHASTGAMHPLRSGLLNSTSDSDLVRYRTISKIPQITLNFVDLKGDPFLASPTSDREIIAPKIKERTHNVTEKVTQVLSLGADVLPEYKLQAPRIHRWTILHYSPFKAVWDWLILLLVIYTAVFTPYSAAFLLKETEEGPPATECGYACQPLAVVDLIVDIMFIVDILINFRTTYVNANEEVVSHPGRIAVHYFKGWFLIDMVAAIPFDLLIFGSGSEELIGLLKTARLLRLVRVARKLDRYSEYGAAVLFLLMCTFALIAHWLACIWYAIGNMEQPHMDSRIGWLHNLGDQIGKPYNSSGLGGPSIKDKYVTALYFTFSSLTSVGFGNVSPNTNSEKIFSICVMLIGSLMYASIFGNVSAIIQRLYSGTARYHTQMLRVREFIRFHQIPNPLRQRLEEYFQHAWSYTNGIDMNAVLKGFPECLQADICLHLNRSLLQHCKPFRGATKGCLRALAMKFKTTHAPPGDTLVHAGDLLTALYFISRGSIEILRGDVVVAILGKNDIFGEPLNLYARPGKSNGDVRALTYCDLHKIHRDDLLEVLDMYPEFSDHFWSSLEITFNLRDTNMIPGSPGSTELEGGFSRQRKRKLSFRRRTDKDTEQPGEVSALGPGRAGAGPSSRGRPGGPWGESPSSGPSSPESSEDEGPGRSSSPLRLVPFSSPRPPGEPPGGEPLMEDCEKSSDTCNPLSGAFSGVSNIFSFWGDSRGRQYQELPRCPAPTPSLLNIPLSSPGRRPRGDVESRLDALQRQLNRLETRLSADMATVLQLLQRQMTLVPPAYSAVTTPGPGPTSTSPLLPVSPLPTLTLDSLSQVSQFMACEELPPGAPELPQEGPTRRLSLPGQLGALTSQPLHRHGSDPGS
For `COc1ccc(N2C(=O)C(O)C2c2ccc(C)cc2)cc1` (stereo not shown), the “hERG current change (%, negative = inhibition) at 10uM” value worked out at 3.71%. Take `CCOc1ccc(NC2C=CS(=O)(=O)C2)cc1` (stereo not shown): the “hERG current change (%, negative = inhibition) at 10uM” value is on record as -35.1%. The value for `COc1ccc(C(=O)C(CN2CCCC2)c2ccccc2)cc1` (stereo not shown) was -34.7%.

Regarding `COCCn1c(N2CCN(c3ccccc3)CC2)nc2c1c(=O)n(C)c(=O)n2C`, the “hERG current change (%, negative = inhibition) at 10uM” value is given as -16.4%.

With `Brc1ccccc1Cn1cnc2ccccc21`, the “hERG current change (%, negative = inhibition) at 10uM” value is -6.99%. Turning to `O=C(N/N=C/c1ccc(-c2cccc([N+](=O)[O-])c2)o1)[C@H]1C[C@@H]1c1ccccc1`, the “hERG current change (%, negative = inhibition) at 10uM” value was found to be 9.39%.

As for `O=C(NNC(=O)c1cc2cc3ccccc3nc2s1)c1cccc(Cl)c1`, the “hERG current change (%, negative = inhibition) at 10uM” value is recorded as -9.64%. Under `COC(=O)CSc1cc(SCC(=O)OC)c(C#N)c(SCC(=O)OC)c1` stands -3.35%; under `N#CC1=C(N)C(C#N)(C#N)C(c2cccnc2)C2COCC=C12` (stereo not shown), -18.2%. Under `Cc1cc(NC(=O)CSc2nc3c(c(-c4cccnc4)c2C#N)CCC3)no1` stands 4.17%; under `O=C(CSc1nc2ncccc2[nH]1)Nc1ccccc1-c1ccccc1`, 4.9%.

On to `COc1ccccc1OCCNC(=O)c1cc(SC)ccc1Cl`, for which the “hERG current change (%, negative = inhibition) at 10uM” value was -5.27%.

For `Cc1csc(NC(=O)C2CCN(S(=O)(=O)c3ccccc3F)CC2)n1`, the “hERG current change (%, negative = inhibition) at 10uM” value is given as -3.04%.

As to `CCOC(=O)C(C)(C)C(=O)C(C)(C)C(O)c1ccccn1` (stereo not shown), the “hERG current change (%, negative = inhibition) at 10uM” value is -6.78%. The value for `CCCCN(C(=S)NC(=O)c1cc(OC)c(OC)c(OC)c1)c1c(N)n(Cc2ccccc2)c(=O)[nH]c1=O` was 13.7%; that for `CN1CCC(OC(=O)c2ccc(Cl)cc2Cl)CC1.Cl` was -55.9%. The value for `O=C(CN1C(=O)c2cccc3cccc1c23)Nc1ccc(S(=O)(=O)N2CCOCC2)cc1` was -9.06%. Under `Cc1cccc(NC(=O)c2nc[nH]c2C(=O)N[C@@H](Cc2ccccc2)C(=O)OC(C)(C)C)c1` stands 19.7%. On to `COc1ccc(CN(C)C(=O)c2ccc(NS(=O)(=O)c3ccc(F)cc3)cc2)c(OC)c1`, for which the “hERG current change (%, negative = inhibition) at 10uM” value came to 3.52%. The value for `CC(=O)OC(C)(C)C1Cc2cc3ccc(=O)oc3cc2O1` (stereo not shown) was 16.4%; that for `N#Cc1c(C(F)(F)F)cc(-c2cccs2)nc1SCC(=O)O` was -5.3%. The value for `COc1ccc2[nH]cc(C(=O)CNc3nc(C)cs3)c2c1.I` was -24.4%.

As for `COc1cc([C@@H]2C[C@H]3CN(c4ccccc4)C(=O)[C@]34CCCN24)cc(OC)c1OC`, the “hERG current change (%, negative = inhibition) at 10uM” value is -32%.

As for `Br.CCCC(=O)Nc1ccc(-c2csc(N/N=C\c3ccncc3)n2)cc1`, the “hERG current change (%, negative = inhibition) at 10uM” value turned out to be 25.3%. The value for `CCOC(=O)c1[nH]c2ccc(OC)cc2c1C(SCC(=O)O)c1ccc(C(F)(F)F)cc1` (stereo not shown) was 8.98%. Under `O=C(CSc1nnc(CNC(=O)c2cccs2)o1)NCC1CCCO1` (stereo not shown) stands 8.14%; under `CCOc1ccc2nc(NC(=O)CSc3nc4cccnc4n3C)sc2c1`, 17.4%. The value for `CCC(C)(C(=O)NC1CCCCC1)N(CC1CCCO1)C(=O)Cc1cccs1` (stereo not shown) was 2.49%; that for `CN(C)c1ccc(N=Cc2cccn2C)cc1` was 23.6%; that for `Cc1ccc(S(=O)(=O)N(C)c2ccc(C(=O)N3CCN(Cc4ccc5c(c4)OCO5)CC3)cc2)cc1` was -44.1%. For the compound `O=C(Nc1ccccc1)C1=C(N2CCOCC2)/C(=C/c2cccnc2)CC1`, the “hERG current change (%, negative = inhibition) at 10uM” value is reported as -40.2%. For `CN(C)c1ccc(C=NC(CO)C(O)c2ccc([N+](=O)[O-])cc2)cc1` (stereo not shown), the “hERG current change (%, negative = inhibition) at 10uM” value is recorded as -1.65%. Regarding `N/C(CC(=O)Nc1ccc(F)cc1F)=N\OC(=O)c1cccs1`, the “hERG current change (%, negative = inhibition) at 10uM” value is -9.37%. The value for `O=C1Cc2cc(S(=O)(=O)Nc3ccc(F)cc3Cl)ccc2N1` was -6.75%. Under `COc1ccc(C(=O)Nc2ccc3oc(-c4cccc(Cl)c4)cc(=O)c3c2O)cc1` stands 4.4%; under `COc1cc(OC)cc(-c2c(-c3ccc(F)cc3)c3cc(-c4ccc5cc[nH]c5c4)ccc3n2C)c1`, 14.2%; under `CC(=O)Nc1ccc(NC(=O)c2oc3cc(C)c(C)cc3c2C)cc1`, 7.5%.

`O=C(O)c1ccccc1C(=O)NCC(O)COCC1CC=CCC1` (stereo not shown): the “hERG current change (%, negative = inhibition) at 10uM” value is -33.5%.

With `COC(=O)[C@@]1(Cc2ccc(F)cc2)[C@H]2c3cc(C(=O)N(C)C)n(C[C@H](O)CO)c3C[C@H]2CN1C(=O)c1ccccc1`, the “hERG current change (%, negative = inhibition) at 10uM” value is reported as 9.02%. Under `COCc1c(Br)c(C)nc2sc3c(=O)[nH]nnc3c12` stands 10.3%. Under `Cc1ccc(S(=O)(=O)N2CC=C(C(=O)NC3CCCC3)CC2)cc1` stands -15.3%; under `CC1(C)CC(CC(=O)Nc2ccccc2[N+](=O)[O-])C(=O)O1` (stereo not shown), -1.77%; under `S=c1nc2ccccc2c2nc(-c3ccccc3Br)[nH]n12`, 15.6%. With `Cc1cc(N2CCN(C3CCCCC3)CC2)nc2cccc(O)c12`, the “hERG current change (%, negative = inhibition) at 10uM” value was -49.4%.

For `COc1cc(-c2nnc3sc(C4CCCCC4)nn23)cc(OC)c1OC`, the “hERG current change (%, negative = inhibition) at 10uM” value was -43.7%. The value for `O=C(Nc1ccc2c(c1)OCO2)c1ccc(Cl)nc1` was 5.7%; that for `COc1ccc(N=C2S/C(=C\c3ccc(C)s3)C(=O)N2CC(C)C)cc1` was -3.46%; that for `O=C(Nc1ccc2c(c1)OCO2)c1noc2c1CCCCC2` was -4.64%.

Regarding `Cc1ccc(OCCCCN2CCCCC2)c(C)c1`, the “hERG current change (%, negative = inhibition) at 10uM” value was -24.6%. Take `CCCCN1C(=O)C(=O)N(CC(=O)Nc2sc(CC)cc2C(=O)OCC)C1=O`: the “hERG current change (%, negative = inhibition) at 10uM” value was -10%. With `CC(CNC(=O)CCc1ccccc1)NC(=O)CCc1ccccc1` (stereo not shown), the “hERG current change (%, negative = inhibition) at 10uM” value is recorded as 13.7%.

For `CCc1nnc(SCC(=O)Nc2ccc(N3CCN(S(C)(=O)=O)CC3)cc2)o1`, the “hERG current change (%, negative = inhibition) at 10uM” value is given as 0.927%. The value for `CCOC(=O)c1c(CSC(=N)N)n(-c2ccccc2)c2cc(Br)c(OC(C)=O)cc12` was -77.9%. As to `COc1ccc(OCC(O)Cn2c(N3CCCCC3)nc3c2c(=O)[nH]c(=O)n3C)cc1` (stereo not shown), the “hERG current change (%, negative = inhibition) at 10uM” value is listed as -5.73%. The value for `CN(C)C(CNC(=O)c1ccc(NS(=O)(=O)c2ccc(F)cc2)cc1)c1ccco1` (stereo not shown) was -13.7%; that for `Cc1ccc(-n2nnnc2CNC(=O)c2ccc([N+](=O)[O-])o2)cc1C` was -5.83%. Under `CCNC(=S)N1CCN(c2ccc([N+](=O)[O-])cc2)CC1` stands -64.5%; under `CC(C)CN(C(=O)COC(=O)c1ccc(C#N)cc1)C1CCS(=O)(=O)C1` (stereo not shown), -41.7%. Under `COc1ccc(-c2nn(CCC#N)cc2C(=O)Nc2cccc(C(=O)O)c2)cc1OC` stands 20.9%. Take `CC(Nc1[nH]c(=O)n(C)c(=O)c1N=O)c1ccccc1` (stereo not shown): the “hERG current change (%, negative = inhibition) at 10uM” value was found to be 24.9%. Under `COc1ccc(-n2c(=S)[nH]c3cc(C(=O)Nc4ccc(F)cc4)ccc3c2=O)c(OC)c1` stands 11.7%; under `O=C(OCc1ccccc1)Oc1cncc(C(=O)O)c1`, -1.45%. Under `O=C(Nc1ccc(C2=NCCN2)cc1)c1ccc(Cl)c(C(=O)Nc2ccc(C3=NCCN3)cc2)c1` stands 9.58%. The value for `CC1(C)CC(=O)C(C=NCCN2CCNCC2)=C(O)C1` was 13.1%; that for `Cc1ccccc1Oc1cc(NC(=O)Cn2cnc([N+](=O)[O-])c2)cc([N+](=O)[O-])c1` was 9.59%.

As to `O=S(=O)(c1cc(Br)c(Cl)s1)N1CCCC1`, the “hERG current change (%, negative = inhibition) at 10uM” value was found to be 2.34%.

For the compound `CCc1noc(C)c1C(=O)N1CCN(S(=O)(=O)c2c(C)cc(C)cc2C)CC1`, the “hERG current change (%, negative = inhibition) at 10uM” value is -21.3%. The value for `CCn1c(SCC(=O)OC)nnc1-c1ccccc1` was -14.7%; that for `Cc1cc(C)cc(NC(=O)N2CCN(S(C)(=O)=O)CC2)c1` was 26.5%. The value for `O=c1[nH]c(C2CCN(S(=O)(=O)c3cccc(C(F)(F)F)c3)CC2)nc2c1nnn2Cc1cccc(F)c1` was 8.4%. On to `CCCCC(C(=O)O)C(C)CC(=O)Nc1nncs1` (stereo not shown), for which the “hERG current change (%, negative = inhibition) at 10uM” value is reported as 13.1%. The value for `COc1ccccc1C(=O)N/N=C(\C)CC(=O)Nc1ccccn1` was 16%; that for `Cc1cc2ncc(C(=O)Nc3ccccc3)c(C)n2n1` was -5%. The value for `Cc1nc2c(-c3ccc(F)cc3)c(C)nn2c(C)c1CCC(=O)NCCN1CCOCC1` was -24.3%; that for `CC(C)CNC(=O)c1cc(-c2ccco2)on1` was 5.6%. The value for `CC(C)C[C@@H]1NC(=O)N(CCN2CCOCC2)C1=O` was -9.72%; that for `CCOc1ncccc1C(=O)OCC(=O)c1cc(OC)c(OC)c(OC)c1` was -1.76%.

`CCN(CC(=O)Nc1ccc(NC(C)=O)cc1)C(=O)CCCOc1ccc(C(C)(C)C)cc1`: the “hERG current change (%, negative = inhibition) at 10uM” value turned out to be 15.8%. Consider `O=C(c1cc2nc(-c3ccccc3)cc(-c3ccccc3)n2n1)N1CCC2(CC1)OCCO2`, for which the “hERG current change (%, negative = inhibition) at 10uM” value is listed as -49.4%.

For `CC1CCN(C(=O)Cn2c(=O)n(Cc3ccc4c(c3)OCO4)c(=O)c3ccccc32)CC1`, the “hERG current change (%, negative = inhibition) at 10uM” value is -18.5%. The value for `Cc1nn(Cc2ccc(Cl)cc2)c(C)c1NC(=O)Cn1nc([N+](=O)[O-])c(Cl)c1C` was 2.42%; that for `Cn1c(Oc2ccccc2)c(C=O)c2ccccc21` was -9.62%; that for `c1ccc(C2CC(c3ccccc3)n3c(nc4ccccc43)N2)cc1` (stereo not shown) was 3.56%. The value for `COc1ccc(-c2oc(/N=C/N3CCCC3)c(C#N)c2-c2ccc(OC)cc2)cc1` was -18.5%; that for `O=C(Nc1ccccc1)c1ccc2ccccc2n1` was 15.2%.
